Experimental data from the supplement of paper PMC10338343.
± gives the standard deviation. The full ranking holds about 6,600 sequences; the median of “pre-steady-state target cleavage rate” is about 0.07, and the highest 2% start at about 0.72. The list shows a part of the results, in another mix than the full data.

System: MIWI (PIWIL1) piRISC loaded with Kctd7 piRNA (30 nt)
Assay: pre-steady-state target cleavage rate (min^-1); MIWI and MILI are mouse PIWI proteins and EfPiwi is from a freshwater sponge; tags in brackets are library labels; higher = faster piRNA-guided slicing of the target
Conditions: guide: Kctd7 piRNA 5'p-UGUUAAUCUCUCAGAGAAGGUGACAGUGAU; auxiliary factor: 500 nM mouse GTSF1
Method in brief: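 The pre-steady-state cleavage rate came from a burst-and-steady-state fit to pooled data from three Cleave-'n-Seq trials, in which uncleaved targets were sequenced and normalised to depth and to weakly complementary targets. Each reaction held 0.1 nM transcribed, DNA-blocked target RNA library and 1 nM active affinity-purified piRISC carrying one synthetic guide, with or without 500 nM GTSF1 partner protein, in HEPES–potassium acetate buffer at 33 °C for 0–8 or 0–960 min. k3 was capped at 0.0001 min^-1.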

Q: With UAGUGACACUCCUUCUCUGAGAGUUUAACA as the sequence, how does the “pre-steady-state target cleavage rate” value read?
A: 0.0594 ± 0.011

Q: How did the “pre-steady-state target cleavage rate” value turn out when UAGUGACAGACCAUCUCUGAGAGUUUAACA was run?
A: 0.00779 ± 0.0032

Q: UACACACUCACCUUCUCUGAGAGAUAUUGA was tested. Which “pre-steady-state target cleavage rate” value did it give?
A: 0.0508 ± 0.021

Q: For UACACUGUCACCUUCACUGAGAGAUAAACA, which “pre-steady-state target cleavage rate” value is on record?
A: 0.175 ± 0.024

Q: UAGUGACACACCUUGUCAGAGAGAUUAACA was tested. Which “pre-steady-state target cleavage rate” value did it give?
A: 0.0179 ± 0.005

Q: For AUAACUGUCACCUUCUCUGAGAGAUUAACA, which “pre-steady-state target cleavage rate” value is on record?
A: 0.675 ± 0.03

Q: For UAGUGACACACCUUACUCUGAGAGAUUAACA, which “pre-steady-state target cleavage rate” value is on record?
A: 0.0931 ± 0.0083

Q: UAGUGACAGCCCUUCUCUGAGAGAUUAACA was tested. Which “pre-steady-state target cleavage rate” value did it give?
A: 0.184 ± 0.019

Q: For UUCAGUGACACCUUCUCUGAGAGAUUAACA, which “pre-steady-state target cleavage rate” value is on record?
A: 0.502 ± 0.027

Q: For UUCACUGUCACCUUCUCUGAGAGUAUUUGA, which “pre-steady-state target cleavage rate” value is on record?
A: 0.276 ± 0.071

Q: With UAGUGACUCACCUUGCUCUGAGAGAUUAACA as the sequence, how does the “pre-steady-state target cleavage rate” value read?
A: 0.03 ± 0.0057

Q: For UACACUGUGACCUUCUCAGAGAGAUUAACA, which “pre-steady-state target cleavage rate” value is on record?
A: 0.185 ± 0.013

Q: With UAGUGACACACCAUCUCUGAGAGAUUAUGA as the sequence, how does the “pre-steady-state target cleavage rate” value read?
A: 0.00476 ± 0.0034

Q: With UAGUGAGUCACCUUGUCUGAGAGAUUAUGA as the sequence, how does the “pre-steady-state target cleavage rate” value read?
A: 0.0155 ± 0.0053

Q: UAGUCUGUCACCUUCUCUGAGAGGUUAACA was tested. Which “pre-steady-state target cleavage rate” value did it give?
A: 0.389 ± 0.033

Q: With UUCUCUCUCACCUUCUCUGAGAGAUUAACA as the sequence, how does the “pre-steady-state target cleavage rate” value read?
A: 0.221 ± 0.015

Q: For UAGACUGUCACCUACUCUGUGAGAUUAACA, which “pre-steady-state target cleavage rate” value is on record?
A: 0.166 ± 0.013

Q: UUCACUCUCACCUUCUCUGAGAGAUAUUGA was tested. Which “pre-steady-state target cleavage rate” value did it give?
A: 0.0274 ± 0.0094

Q: For AUCUCUGUCACCUUCUCUGAGUGAUUAACA, which “pre-steady-state target cleavage rate” value is on record?
A: 0.0518 ± 0.0093

Q: With AUCACUCUCACCUUGUCUGAGAGAUUAACA as the sequence, how does the “pre-steady-state target cleavage rate” value read?
A: 0.253 ± 0.025

Q: For AUCACACACACCUUCUCUGAGAGAUUAAGA, which “pre-steady-state target cleavage rate” value is on record?
A: 0.187 ± 0.034

Q: For UAGUGUGUCACCUUCUCUGAGAGUAUAAGA, which “pre-steady-state target cleavage rate” value is on record?
A: 0.0129 ± 0.0064

Q: Which “pre-steady-state target cleavage rate” value does the source give for UAGUGACAGACCUUCUCUGAGAGAUUAAUCA here?
A: 0.0736 ± 0.012

Q: Which “pre-steady-state target cleavage rate” value does the source give for UAGUGACUCACCUUCUCAGAGAGUUUAACA here?
A: 0.0338 ± 0.0068

Q: Which “pre-steady-state target cleavage rate” value does the source give for UAGUGACAGUCCUUCACUGAGAGUUUAACA here?
A: 0.00412 ± 0.0031

Q: Which “pre-steady-state target cleavage rate” value does the source give for UACACUGUCACCUUCUCUGAGAGUAUAUGA here?
A: 0.0187 ± 0.013

Q: With UAGACUGACACCUUCUCUGAGAGAUUAAGA as the sequence, how does the “pre-steady-state target cleavage rate” value read?
A: 0.171 ± 0.029

Q: UAGUGACACUGCUUCUCUGAGAGAUUAAGA was tested. Which “pre-steady-state target cleavage rate” value did it give?
A: 0.0288 ± 0.0053

Q: AUGUGUGUCACCUUCUCUGAGAGAUAUUGA was tested. Which “pre-steady-state target cleavage rate” value did it give?
A: 0.0536 ± 0.017

Q: UACACUGUCAGCUUCUCAGAGAGAUUAACA was tested. Which “pre-steady-state target cleavage rate” value did it give?
A: 0.276 ± 0.022

Q: How did the “pre-steady-state target cleavage rate” value turn out when UACACUGUCUCCUUCUCUGAGUGAUUAACA was run?
A: 0.0287 ± 0.0061

Q: With UAGUCUGUCACCUUCUCUGAUAGAUUAACA as the sequence, how does the “pre-steady-state target cleavage rate” value read?
A: 0.242 ± 0.015

Q: For UACACAUGUCACCUUCUCUGAGAGAUUAACA, which “pre-steady-state target cleavage rate” value is on record?
A: 0.462 ± 0.023

Q: For AUCACUGUCACCAUCUCUCAGAGAUUAACA, which “pre-steady-state target cleavage rate” value is on record?
A: 0.0702 ± 0.0098

Q: With UACACUGUCUCCUUCUCUGAGAGAUUAUGA as the sequence, how does the “pre-steady-state target cleavage rate” value read?
A: 0.0612 ± 0.017

Q: How did the “pre-steady-state target cleavage rate” value turn out when AUCACUCUCACCUUCUCUCAGAGAUUAACA was run?
A: 0.103 ± 0.0076

Q: For UAGUGAGUCACCUUCUCUUAGAGAUUAACA, which “pre-steady-state target cleavage rate” value is on record?
A: 0.373 ± 0.025

Q: How did the “pre-steady-state target cleavage rate” value turn out when UAGUGACAGACAUUCUCUGAGAGAUUAACA was run?
A: 0.00694 ± 0.0032

Q: UACACUGUCACCUUCUCUCAGAGUUUAACA was tested. Which “pre-steady-state target cleavage rate” value did it give?
A: 0.0639 ± 0.01

Q: UAGUGAUUCACCUUCUCUGAGAGAUUAACA was tested. Which “pre-steady-state target cleavage rate” value did it give?
A: 0.568 ± 0.033

Q: With “UAGUGACAGUGCUUCUCUGAGAGAUUAACU [g2:g19:cont:t1U]” as the sequence, how does the “pre-steady-state target cleavage rate” value read?
A: 0.00941 ± 0.003

Q: With UAGUGUCUGACCUUCUCUGAGAGAUUAACA as the sequence, how does the “pre-steady-state target cleavage rate” value read?
A: 0.399 ± 0.025

Q: For UAGUGAGUCAUCUUCUCUGAGAGAUUAACA, which “pre-steady-state target cleavage rate” value is on record?
A: 0.66 ± 0.034

Q: For UACUCUGUCACCUUCUCUGUGAGAUUAACA, which “pre-steady-state target cleavage rate” value is on record?
A: 0.286 ± 0.013

Q: For UAGACAGUCACCUUGUCUGAGAGAUUAACA, which “pre-steady-state target cleavage rate” value is on record?
A: 0.293 ± 0.029

Q: For UAGUGACAAACCUUCUCUGAGAGAUUAACA, which “pre-steady-state target cleavage rate” value is on record?
A: 0.159 ± 0.013

Q: UAGUGACUCACCUUCUGUGAGAGAUUAACA was tested. Which “pre-steady-state target cleavage rate” value did it give?
A: 0.5 ± 0.042

Q: Which “pre-steady-state target cleavage rate” value does the source give for UACACAGUCACCUUCUCUGAGAGAUUAUGA here?
A: 0.0769 ± 0.019

Q: How did the “pre-steady-state target cleavage rate” value turn out when UAGUGACACACCUCUCUCUGAGAGAUUAACA was run?
A: 0.155 ± 0.016

Q: For UAGACUGUCACCAUCUCUGAGUGAUUAACA, which “pre-steady-state target cleavage rate” value is on record?
A: 0.0118 ± 0.0013

Q: Which “pre-steady-state target cleavage rate” value does the source give for AUCACUGUCACCUUCUCUGAGAGUAUUUGA here?
A: 0.109 ± 0.034

Q: Which “pre-steady-state target cleavage rate” value does the source give for “UAGACUGUCACCUUCUGACUCUCUAAUUGA [g15:g27:cont:t1A]” here?
A: < 0.0001

Q: How did the “pre-steady-state target cleavage rate” value turn out when UAGUGUGUCACCUUCUCUCAGAGAUUAACA was run?
A: 0.0919 ± 0.0083

Q: How did the “pre-steady-state target cleavage rate” value turn out when UAGUGAGUCACGCUUCUCUGAGAGAUUAACA was run?
A: 0.38 ± 0.022

Q: With AUCACUGUCACCUUCUCUGAGAUGAUUAACA as the sequence, how does the “pre-steady-state target cleavage rate” value read?
A: 0.0333 ± 0.011

Q: Which “pre-steady-state target cleavage rate” value does the source give for UAGUGACAGAGCUUCUGUGAGAGAUUAACA here?
A: 0.00423 ± 0.0031

Q: How did the “pre-steady-state target cleavage rate” value turn out when UUCACUGACACCUUCUCUCAGAGAUUAACA was run?
A: 0.103 ± 0.009

Q: How did the “pre-steady-state target cleavage rate” value turn out when AUCACUGUCACCUUCUGAGAGAGAUUAAGA was run?
A: 0.0485 ± 0.013

Q: How did the “pre-steady-state target cleavage rate” value turn out when UAGACUCUCACCUUCUCUGAGAGUUUAACA was run?
A: 0.108 ± 0.012

Q: With UAGUCUGUCACCUUCUUCUGAGAGAUUAACA as the sequence, how does the “pre-steady-state target cleavage rate” value read?
A: 0.0776 ± 0.022

Q: How did the “pre-steady-state target cleavage rate” value turn out when UAGACUGUCACCUUCUCUGAGAUGAUUAACA was run?
A: 0.00962 ± 0.0026

Q: UAGACUGUCACCUUCUCAGAGACAUUAACA was tested. Which “pre-steady-state target cleavage rate” value did it give?
A: 0.153 ± 0.017

Q: For UAGUCUGUCACCUUCUCUGAGAGAUUAGCA, which “pre-steady-state target cleavage rate” value is on record?
A: 0.119 ± 0.021

Q: How did the “pre-steady-state target cleavage rate” value turn out when UAGUGACACACCUUCUCUGUGAGUUUAACA was run?
A: 0.0493 ± 0.0058

Q: Which “pre-steady-state target cleavage rate” value does the source give for UUCACUGUCACCUUCUCUCUCAGAUUAUGA here?
A: 0.00591 ± 0.0035

Q: UAGUCUGUCACCUUCUCUGAGAGUUAACA was tested. Which “pre-steady-state target cleavage rate” value did it give?
A: 0.24 ± 0.069

Q: For AUCACUGUCACCUUCUCUGAGAGGAUUAACA, which “pre-steady-state target cleavage rate” value is on record?
A: 0.431 ± 0.043

Q: For UAGUGACACACCAUCUCUGAGUGAUUAACA, which “pre-steady-state target cleavage rate” value is on record?
A: 0.014 ± 0.0034

Q: With UAGUGUGACACCUUCUCUGAGACAUUAACA as the sequence, how does the “pre-steady-state target cleavage rate” value read?
A: 0.0627 ± 0.01

Q: For UAGUGACAGACCUUCUCUGAGAGUAUUAACA, which “pre-steady-state target cleavage rate” value is on record?
A: 0.0381 ± 0.0067

Q: How did the “pre-steady-state target cleavage rate” value turn out when UAGUGAGUCACCUUCUCUGAGAUAUUAACA was run?
A: 0.26 ± 0.032

Q: For UAGACUGUCCCCUUCUCUGAGAGAUUAACA, which “pre-steady-state target cleavage rate” value is on record?
A: 0.696 ± 0.049
